# Experimental data: publication PMC4336329 (PLoS ONE, 2015)
# Among all 310,000 compounds or so, about 2,200 (0.71%) showed an effect of 50% or more. The effect is printed as a negative number. The list shows a part of the results.
# Biological target: human ether-à-go-go-related gene (hERG) potassium channel (human, UniProt Q12809)
# Test: primary screen, population patch clamp on CHO cells stably expressing hERG
# Chain of human ether-à-go-go-related gene (hERG) potassium channel (Q12809 whole entry, looked up): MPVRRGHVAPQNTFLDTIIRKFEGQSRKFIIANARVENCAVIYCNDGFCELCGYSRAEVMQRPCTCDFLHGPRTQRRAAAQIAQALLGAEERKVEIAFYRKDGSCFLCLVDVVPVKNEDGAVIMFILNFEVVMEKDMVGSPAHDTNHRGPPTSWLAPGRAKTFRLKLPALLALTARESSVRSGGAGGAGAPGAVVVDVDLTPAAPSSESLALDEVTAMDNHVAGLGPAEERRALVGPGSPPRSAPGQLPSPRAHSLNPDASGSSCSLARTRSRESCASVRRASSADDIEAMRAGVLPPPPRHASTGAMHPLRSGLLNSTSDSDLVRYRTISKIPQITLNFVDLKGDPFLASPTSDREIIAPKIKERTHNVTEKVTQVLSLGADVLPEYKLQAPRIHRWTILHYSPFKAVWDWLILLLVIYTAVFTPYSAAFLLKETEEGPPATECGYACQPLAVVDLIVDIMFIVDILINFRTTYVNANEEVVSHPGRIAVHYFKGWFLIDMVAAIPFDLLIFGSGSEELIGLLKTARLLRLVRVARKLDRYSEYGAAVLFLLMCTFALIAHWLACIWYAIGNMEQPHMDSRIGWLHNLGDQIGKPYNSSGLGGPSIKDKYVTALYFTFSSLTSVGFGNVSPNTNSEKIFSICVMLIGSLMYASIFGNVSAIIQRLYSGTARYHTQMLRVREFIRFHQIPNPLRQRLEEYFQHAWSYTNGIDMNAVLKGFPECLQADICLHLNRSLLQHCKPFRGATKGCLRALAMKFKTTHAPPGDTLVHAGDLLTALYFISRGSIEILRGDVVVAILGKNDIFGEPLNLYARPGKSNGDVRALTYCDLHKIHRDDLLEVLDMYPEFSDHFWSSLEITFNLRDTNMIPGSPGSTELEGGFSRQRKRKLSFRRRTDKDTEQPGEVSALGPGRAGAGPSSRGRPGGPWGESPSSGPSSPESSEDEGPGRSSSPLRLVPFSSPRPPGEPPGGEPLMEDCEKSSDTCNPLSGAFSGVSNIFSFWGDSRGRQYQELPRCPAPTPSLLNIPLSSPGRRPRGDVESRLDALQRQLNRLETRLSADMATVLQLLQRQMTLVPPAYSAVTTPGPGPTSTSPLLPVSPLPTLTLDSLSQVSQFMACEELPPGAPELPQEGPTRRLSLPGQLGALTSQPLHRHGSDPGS
row,SMILES,"hERG current change (%, negative = inhibition) at 1uM [%]"
1,C1CCN(Cc2nnnn2C2CCCC2)CC1,11.2
2,NS(=O)(=O)c1ccc(NCc2ccccc2OCc2ccccc2F)cc1,5.57
3,c1ccc(-c2nnc3ccc(N4CCCC4)nn23)cc1,12.2
4,CN(C)c1cc(C(F)(F)F)nc(-c2ccccn2)n1,6.17
5,CC(C)CC(=O)NC(=S)Nc1ccc(N2CCOCC2)c(Cl)c1,10.7
6,Cc1ccc(S(=O)(=O)N2CCCCC2)cc1NC(=O)Cn1c(=O)cnc2ccccc21,5.94
7,Nc1cc2ccccc2oc1=O,11.2
8,CCOCCCNC(=O)CN1C(=O)COc2ccc(S(=O)(=O)N3CCCCCC3)cc21,16.9
9,Cc1ccsc1C1C(C#N)=C(N)OC2=C1C(=O)CC(C)C2 (stereo not drawn),-6.03
10,NC(=O)C1CCN(CCC(=O)Nc2ccc3c(c2)CCC3)CC1,-7.54
11,Cc1cc(S(=O)(=O)N2CCCC2)ccc1OCC(=O)NCc1ccccc1,9.71
12,Cc1ccc2c(c1)oc(=O)n2CC(=O)c1ccccc1,8.61
13,Cc1ccc(NC(=O)NCc2ccc3c(c2)OCO3)cc1C,6.54
14,COc1ccccc1OCCCC(=O)Nc1ccc(N2CCOCC2)cc1,8.48
15,CCOC(=O)c1c(C)c(C(=O)NCCc2ccccc2)c(C)n1C,3.8
16,O=C(/C=C/c1ccc(OC(F)F)cc1)OCC(=O)N1CCc2ccccc21,16.1
17,CC(C)/C=N/Nc1nc(-c2ccc(Br)cc2)cs1,1.05
18,CC1(c2ccc3ccccc3c2)NC(=O)N(CC(=O)NCC(C)(C)N2CCOCC2)C1=O (stereo not drawn),5.4
19,CC(=O)N1CCOc2ccc(S(=O)(=O)NCC3CCC(C(=O)Nc4ncccc4C)CC3)cc21 (stereo not drawn),4.24
20,O=C(CCl)Nc1ccc(Oc2cnc3ccccc3n2)cc1,8.33
21,COc1ccc(C2C(C(=O)OC(C)C)=C(C)N=c3s/c(=C\c4cccs4)c(=O)n32)cc1 (stereo not drawn),9.39
22,COc1ccc(-c2nnc(-c3cccnc3)o2)cc1,9.22
23,O=C(COC(=O)C1CC1)Nc1ccccc1Sc1ccccc1,5.86

row,SMILES,"hERG current change (%, negative = inhibition) at 1uM [%]"
1,N#CC(=NCc1cccnc1)C1=C(O)c2ccccc2C1=O,10.2
2,O=C(NNS(=O)(=O)c1ccc2ccccc2c1)C1CCN(Cc2ccccc2)CC1,8.72
3,COc1ccc(NS(=O)(=O)NC(=O)c2cn(C)c3ccccc23)cc1,11
4,CCc1nnc(NC(=O)C2CC(=O)N(c3ccc4c(c3)OCCO4)C2)s1 (stereo not drawn),7.52
5,Cc1ccc2c(c1)NC(=O)C(CC(=O)Nc1ccc(CN3CCC(C)CC3)cc1)O2 (stereo not drawn),8.91
6,Cc1ncc([N+](=O)[O-])n1CC(O)CCl (stereo not drawn),6.29
7,O=[N+]([O-])c1c(NCCO)cc(Sc2nc3ccccc3s2)c2nonc12,21.7
8,CCCCN1C(N)=NC[C@@H]1CCCCN,15.5
9,Cc1noc(C)c1C(=O)Nc1nc2ccc(S(C)(=O)=O)cc2s1,11.4
10,COC(=O)c1ccc(C2c3[nH]c4ccccc4c3C[C@H]3C(=O)N(C)CC(=O)N23)cc1 (stereo partly drawn),12.1
11,Cc1cccc(-n2cc3c(=O)n(C)c(=O)n(C)c3c2)c1,12.4
12,CSc1ncccc1C(=O)Nc1ccc2nc(C)sc2c1,6.94
13,COC(=O)c1ccc(NC(=S)Nc2ccc(O)cc2)cc1,5.34
14,C/C(Cl)=C\Cn1c(O)c(N=NC(N)=S)c2ccccc21,-8.32
15,CCN(CC)CCNC(=O)c1ccc(NC(=O)Cc2ccccc2F)cc1,7.05
16,N/C(=N\N=C/c1ccc(-c2ccc(O)c(C(=O)O)c2)o1)N[N+](=O)[O-],3.87
17,CCNc1oc(COc2ccccc2F)nc1C#N,15.3
18,CCC(NC(=O)NCc1cccnc1)(C(F)(F)F)C(F)(F)F,8.71
19,O=C(CCS(=O)(=O)c1ccc(Br)s1)NCc1cccs1,-0.645
20,CCOC(=O)C1=C(C)N=c2s/c(=C\c3ccc(C(=O)O)cc3)c(=O)n2C1c1ccc(F)cc1 (stereo not drawn),2.3
21,CN1CC(=O)N(CC(=O)Nc2cccc(S(=O)(=O)N3CCOCC3)c2)C1=O,9.79
22,Cc1nnsc1C(=O)NC1CCCc2c1cnn2-c1ccc(C(C)(C)C)cc1 (stereo not drawn),8.39
